Patent publication US20250296936A1, “SARS-COV2 MAIN PROTEASE INHIBITORS” (Gilead Sciences, Inc., priority 2024, published 2025)

These compounds were tested against recombinant SARS-CoV-2 Main protease (Mpro) (Severe acute respiratory syndrome coronavirus 2, UniProt P0DTD1) (assay: Cov Mpro Biochemical IC50 Assay). Conditions: 7.5 nM Mpro, fluorogenic peptide substrate 40 μM, 20 min pre-incubation; read-out: MPro IC50.
For N#CC1(Cn2c(=O)n(-c3cncc4ccc(F)cc34)c(=O)c3oc(-c4ccccc4Cl)cc32)CC1 [Example 52], the IC50 was 7.67 nM. Compound Cc1cncc(-n2c(=O)c3oc(-c4ccccc4Cl)cc3n(CC3(C#N)CC3)c2=O)c1 [Example 53] has an IC50 of 5.98 nM. N#CC1(Cn2c(=O)n(-c3cncc4ccccc34)c(=O)c3oc(-c4ccc(F)cc4Cl)cc32)CC1 [Example 54] was tested, and the IC50 was 13.8 nM. In the case of COc1cc(-c2cc3[nH]c(=O)n(-c4cncc5cccnc45)c(=O)c3o2)c(Cl)cc1F [Example 55, 6-(2-chloro-4-fluoro-5-methoxyphenyl)-3-(1,6-naphthyridin-8-yl)furo[3,2-d]pyrimidine-2,4(1H,3H)-dione], the IC50 is reported as 49 nM. With COc1cc(-c2cc3[nH]c(=O)n(-c4cncc(C)c4)c(=O)c3o2)c(Cl)cc1F [Example 56] the IC50 was 27.8 nM. With COc1cc(-c2cc3c(o2)c(=O)n(-c2cncc4cccnc24)c(=O)n3CCC#N)c(Cl)cc1F [Example 57, 3-(6-(2-chloro-4-fluoro-5-methoxyphenyl)-3-(1,6-naphthyridin-8-yl)-2,4-dioxo-3,4-dihydrofuro[3,2-d]pyrimidin-1(2H)-yl)propanenitrile] the IC50 was 9.25 nM. Compound COc1cc(-c2cc3c(o2)c(=O)n(-c2cncc(C)c2)c(=O)n3CCC#N)c(Cl)cc1F [Example 58] has an IC50 of 5.48 nM.
